Source: PubChem BioAssay AID588795 (National Center for Advancing Translational Sciences (NCATS), 2011)
Hit rate of the full screen: of about 390,000 compounds, about 1,400 (0.36%) were called active. Inconclusive results, whose numbers are uncertain, are shown with a selection of clear calls. Calls come from the whole dose curve; as a rule, active = well fitted inhibition curve with a large enough effect; inconclusive = small, poorly fitted or top-dose-only effect; inactive = no such curve, though single readings can be large or run the other way. Where the call is inconclusive, the potency comes from a doubtful curve fit.
% is set by controls: 0 for no effect and ±100 for the full control effect; potency is the fitted concentration of half-maximal effect; tags give direction and shape of the fitted curve.
Note: nearly all actives have a fitted effect of over 65% in size.

These compounds were tested against Flap endonuclease 1 (Homo sapiens) (UniProt P39748) (assay: qHTS Assay for the Inhibitors of Human Flap endonuclease 1 (FEN1).). Settings: Recombinant FEN1 flap cleavage, fluorescence, 15 min; series mostly up to 114 µM; activity change, negative = inhibition: at the top concentration.
UniProt P39748, sequence (P39748 whole entry, looked up): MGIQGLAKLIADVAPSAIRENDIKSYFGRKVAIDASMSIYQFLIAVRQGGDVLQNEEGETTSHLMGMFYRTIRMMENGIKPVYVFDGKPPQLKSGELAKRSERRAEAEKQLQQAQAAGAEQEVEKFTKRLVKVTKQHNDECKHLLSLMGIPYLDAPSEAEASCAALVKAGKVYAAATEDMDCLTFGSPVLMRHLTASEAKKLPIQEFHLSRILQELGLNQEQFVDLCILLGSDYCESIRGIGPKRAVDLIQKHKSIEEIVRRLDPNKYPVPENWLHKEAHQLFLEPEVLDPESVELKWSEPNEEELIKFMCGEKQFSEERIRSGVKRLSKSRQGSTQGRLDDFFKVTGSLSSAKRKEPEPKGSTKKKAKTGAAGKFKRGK
Summary of the method: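 Enzyme 10 nM, 15 min RT preincubation with compound; start with substrate 50 nM final; reads at 0 and 15 min; qHTS titration, four-parameter Hill fit.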
In the case of `Cc1cc(C)c2c3c(sc2n1)C1(CCSCC1)C(C#N)=C(N)O3`, the Potency is reported as inconclusive: 79.4 µM [inhibitor, partial curve, poor fit].
For `COC(=O)CSc1cc(SCC(=O)OC)c(C#N)c(SCC(=O)OC)c1`, the “activity change, negative = inhibition” value was inactive: -20.2%.
For `NC1=NC(=O)/C(=C\c2ccco2)S1`, the Potency was active: 50.1 µM.
`O=C1c2c(O)cccc2C(C2OC(CO)[C@@H](O)[C@H](O)[C@H]2O)c2cc(CO)cc(O)c21` (stereo partly specified) was tested, and the “activity change, negative = inhibition” value was inactive: 8.62%.
In the case of `O=S(=O)(Nc1ccc(O)c(Sc2nc3ccccc3s2)c1)c1cc(Cl)ccc1Cl`, the Potency is reported as inconclusive: 39.8 µM [inhibitor, partial curve, poor fit].
For `O=C1CC(O)(C(F)(F)F)Oc2c1ccc1ccccc21` (stereo unspecified), the Potency was inconclusive: 79.4 µM [inhibitor, single point].
For `CS(=O)(=O)c1ccc2c(c1)sc1nc(=O)c(/C=C3/C=CC(=O)C(O)=C3)c(N)n12`, the Potency was active: 12.6 µM.
`CCSC1=N/C(=C\C=C2/Oc3ccccc3N2CC)C(=O)S1` was tested, and the Potency was inconclusive: 89.1 µM [inhibitor, partial curve, poor fit].
With `COc1cc(N=Cc2c(O)[nH]c3ccccc23)cc(OC)c1OC` the Potency was inconclusive: 50.1 µM [inhibitor, partial curve, poor fit].
With `CCOCc1cc(CN2CCN(c3cccc(C(F)(F)F)c3)CC2)c(O)c2ncccc12` the Potency was inconclusive: 79.4 µM [inhibitor, partial curve, poor fit].
`CC(=O)c1ccc(NC(=O)c2ccc([N+](=O)[O-])o2)cc1` was tested, and the Potency was inconclusive: 25.1 µM [inhibitor, single point].
For `CC(=O)Nc1ccc(C(=O)n2nc(C)cc2C)cc1`, the Potency was inconclusive: 17.8 µM [inhibitor, single point].
`CCOCc1nnc(NC(=O)c2cc(OC)c(OC)c(OC)c2)s1` was tested, and the “activity change, negative = inhibition” value was inactive: -2.81%.
In the case of `O=[N+]([O-])c1cc(Cl)cc(/C=N/NC(=S)Nc2cc(S(=O)(=O)N3CCOCC3)ccc2Cl)c1O`, the Potency is reported as inconclusive: 56.2 µM [inhibitor, partial curve, poor fit].
`Cc1nc2ccccc2c2oc(C(=O)Nc3ccc4c(c3)OCCO4)cc12` was tested, and the Potency was inconclusive: 3.55 µM [inhibitor, partial curve, poor fit].
For `CC1CCN(S(=O)(=O)c2ccc(NC(=O)CN3CCCC(C)C3)cc2)CC1` (stereo unspecified), the Potency was inconclusive: 89.1 µM [inhibitor, partial curve, poor fit].
For `Nc1ccc2nc(-c3cccc(-c4nc5ccc(N)cc5[nH]4)c3)[nH]c2c1`, the Potency was inconclusive: 31.6 µM [inhibitor, partial curve, poor fit].
In the case of `CCOc1ccc2nc(Cl)c(C3CC(c4ccc(C)cc4)=NN3C(=O)CCC(=O)O)cc2c1` (stereo unspecified), the Potency is reported as inconclusive: 44.7 µM [inhibitor, partial curve, poor fit].
With `O=C1c2ccccc2C(Nc2ccc3nc(-c4cccnc4)[nH]c3c2)N1Cc1ccco1` (stereo unspecified) the Potency was inconclusive: 35.5 µM [inhibitor, partial curve].
With `Clc1cccc(CNc2nc(-c3cccnc3)nc3ccccc23)c1` the Potency was inconclusive: 44.7 µM [inhibitor, partial curve, poor fit].
With `COc1ccc(C(=O)c2cn(CC(=O)Nc3cc(OC)cc(OC)c3)c3ccc(OC)cc3c2=O)cc1` the Potency was inconclusive: 35.5 µM [inhibitor, partial curve, poor fit].
In the case of `COc1ccc2cc3cc(C(=O)Nc4ccc5c(c4)OCCO5)oc3nc2c1`, the “activity change, negative = inhibition” value is reported as inactive: -12.1%.
With `CC[n+]1c(/C=C/N(C)c2ccccc2)n(-c2ccccc2)c2ccc(-c3nc4ccccc4s3)cc21` the Potency was active: 39.8 µM.
With `COc1ccc(/C=C2\SC(=S)N(CCC(=O)Nc3ccc(C(=O)O)cc3)C2=O)cc1` the Potency was inconclusive: 28.2 µM [inhibitor, full curve, poor fit].
In the case of `O=[N+]([O-])c1ccc2c(c1)c1ccccc1n2CCO`, the Potency is reported as inconclusive: 89.1 µM [inhibitor, single point].
For `O=C(COC(=O)c1cc(-c2ccco2)nc2ccccc12)NCc1ccccc1`, the “activity change, negative = inhibition” value was inactive: 8.06%.
In the case of `Cc1ccc(S(=O)(=O)ON2C(=O)c3ccccc3C2=O)c(C)c1`, the Potency is reported as inconclusive: 89.1 µM [inhibitor, partial curve, poor fit].
`O=C1C=CC(=O)N1c1ccccc1N1C(=O)C=CC1=O` was tested, and the Potency was inconclusive: 56.2 µM [inhibitor, partial curve, poor fit].
In the case of `CCCc1nc2ccccc2c(=O)n1CC(=O)c1ccc(OC)cc1`, the Potency is reported as inconclusive: 100 µM [inhibitor, partial curve, poor fit].
With `C[C@H]1C=CC(=O)C[C@H]1c1c(F)cccc1Cl` the “activity change, negative = inhibition” value was inactive: 15.2%.
For `COc1ccccc1N1CCN(CC(O)COc2ccc(Cl)c(C)c2)CC1` (stereo unspecified), the Potency was inconclusive: 89.1 µM [inhibitor, partial curve, poor fit].
`CCN(c1ccc(OC)cc1)S(=O)(=O)c1ccc2[nH]c3c(c2c1)CCCCC3` was tested, and the “activity change, negative = inhibition” value was inactive: -21.7%.
`COc1ccc2nc(/N=C(\N)NC(=O)Nc3ccccc3)nc(C)c2c1` was tested, and the Potency was inconclusive: 50.1 µM [inhibitor, partial curve].
For `CN(C)c1ccc(Cn2ccc3ccccc32)cc1`, the Potency was inconclusive: 35.5 µM [inhibitor, partial curve, poor fit].
In the case of `COc1ccc(/C=C/c2cnc3ccccc3n2)cc1OC`, the “activity change, negative = inhibition” value is reported as inactive: -20.1%.
In the case of `N#Cc1c(SCC(=O)Nc2nccs2)sc2c(O)cc(=O)[nH]c12`, the Potency is reported as active: 44.7 µM.
For `CC(C)Cn1c(N)c(C(=O)COC(=O)c2cc(S(=O)(=O)N3CCOCC3)ccc2Br)c(=O)n(C)c1=O`, the Potency was inconclusive: 89.1 µM [inhibitor, single point].
In the case of `CN(C)C(=O)CCc1ccc2c3c([nH]c2c1)[C@]1(CCC2CCCC2)[C@@H](C(=O)N2CCOCC2)C[C@H](CC(=O)NCC24CC5CC(CC(C5)C2)C4)C(=O)N1CC3`, the “activity change, negative = inhibition” value is reported as inactive: 3.23%.
For `COc1cc2nc(Nc3cccc(F)c3)nc(N)c2cc1OC`, the Potency was inconclusive: 50.1 µM [inhibitor, partial curve, poor fit].
With `O=S(=O)(NCCc1nnc2ccc(SCc3ccccc3Cl)nn12)c1ccccc1` the “activity change, negative = inhibition” value was inactive: -24.3%.
For `Cc1cc(N2CCC(C)CC2)nc2ccc(NC(=O)Cc3ccccc3Br)cc12`, the “activity change, negative = inhibition” value was inactive: -13%.
